Experimental data published in the RNAGym collection of RNA variant scans (doi:10.1093/nar/gkz1192).
The source gives no read counts; variants with many changes may rest on few reads.

B1: CPEB3 Ribozyme (parent)
chain: UAACAGGGGGCCACAGCAGAAGCGUUCACGUCGCAGCCCCUGUCAGAUUCUGGUGAAUCUGCGAAUUCUGCUGUAUAUCUC

Variants of: B1
Experiment: self-cleavage, relative activity (ratio to wild type); higher = more cleavage; in vitro, sequencing
Method in brief: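 Libraries of CPEB3 self-cleaving ribozyme mutants came from rounds of error-prone PCR and carried barcodes, which DNA sequencing matched to variants. In vitro transcription used T7 RNA polymerase at 37°C for 5 hours, with a further 15 min in DNase I before EDTA stopped the reaction; the ribozymes cleaved during both steps. The RNA was reverse transcribed with template switching and sequenced on Illumina. Relative activity is the cleaved/total read fraction of a variant divided by that of the unmutated ribozyme, averaged over three batches with at least 5 reads.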

Row | Variant | self-cleavage
1 | UAACAGGGGGCCACAGCAGGAGCGUUCACGUCGCAGCCCCUGUCAGAUUCUUAUGAAUCUGCGAAUUCUGCAGUAUACCUC | 0.34
2 | UAACAGGGGGCCACAGCAGGAGCGUUCACGUCGCAGCCCCUGUCAGAUUCUUGCGAAUCUGCGAAUUCUGCUGUAUAUCUC | 1.06
3 | UAACAGGGGGCCACAGCAGGAGCGUUCACGUCGCAGCCCCUGUCAGAUUCUGGUAAUUCUGCGAAUUCUGCUGCAUAUCUC | 0.24
4 | UAACAGGGGGCCACAGCAGGAGCGUUCACGUCGCAGCCCCUGUCAGAUUCUGGUAAAUCUGCGAAUUCCGCUGAAUAUCCC | 0.82
5 | UAACAGGGGGCCACAGCAGGAGCGUUCACGUCGCAGCCCCUGUCAGAUUCUGGUUAAUCUGCGAAUUCUGCUGUAUAUCAC | 0.98
6 | UAACAGGGGGCCACAGCAGGAGCGUUCACGUCGCAGCCCCUGUCAGAUUCUGGUGAAUCUGCAAAUUCUCCUGUAUUUCUC | 0.13
7 | UAACAGGGGGCCACAGCAGGAGCGUUCACGUCGCAGCCCCUGUCAGAUUCUGGUGAAUCUGCAAAUUCUUCUGUAUUUCCC | 0.16
8 | UAACAGGGGGCCACAGCAGGAGCGUUCACGUCGCAGCCCCUGUCAGAUUCUGGUGAAUCUGCCGAUUCUGCUGUAUAUCUC | 0.41
9 | UAACAGGGGGCCACAGCAGGAGCGUUCACGUCGCAGCCCCUGUCAGAUUCUGGUGAAUCUGCGAAUUCUUCUGCAUAUCUC | 0.17
10 | UAACAGGGGGCCACAGCAGGAGCGAUCUCGUCACCGCCCCUGUCAGAUUCUGGUGAAUCUGCGAAUUCUGCUGUAUAUCGC | 0.06
11 | UAACAGGGGGCCACAGCAGGAGCGAUCACGUCGCAGCCCUUGUCGGAUUCUGGUGAUUCUGCGAAUUCUGCUGUAUAUCUC | 0.06
12 | UAACAGGGGGCCACAGCAGGAGCGAUCACGUCGCAGCCCCUGCCAGAUUCUGGUGAAUCUGCAAAUUCUGCUGUAUAUCUC | 0.31
13 | UAACAGGGGGCCACAGCAGGAGCGAUCACGUCGCAGCCCCUGUCAGACUCUGGUGAACCUGCGAAUUCUGCUGUAUAUCUC | 0.16
14 | UAACAGGGGGCCACAGCAGGAGCGAUCACGUCGCAGCCCCUGUCAGAUUCCGGUGAAUCUGCGAAUUCUGUUGUAUAUCUC | 0.25
15 | UAACAGGGGGCCACAGCAGGAGCGAUCACGUCGCAGCCCCUGUCAGAUUCUGGUGAAUCUGCGAAUUCCGCUGUAUAUCUC | 0.16
16 | UAACAGGGGGCCACAGCAGGAGCGCUCCUGUCGCAGCCCCUGACAGAUUCUGGUGAAUCUGCGAAUUCAGCUGUAUAUCCC | 0.04
17 | UAACAGGGGGCCACAGCAGGAGCGCUCGCGUCGCAGCCCCUGUCAGAUUCUGGUGAAUCUGCGAAUUCUGCUGUAUUUCUC | 0.03
18 | UAACAGGGGGCCACAGCAGGAGCGCUCGCGACGCAGCCCCCGUCAAAUUCUGGUGAAUCUGCGACUUCUGCUGUAUAUCUC | 0.12
19 | UAACAGGGGGCCACAGCAGGAGCGCUCGCGCCGCAGCCCCUGCCAGAUUCUGGUGAAUCUGCAAAUUCUGCUGUAUAUCUC | 0.3
20 | UAACAGGGGGCCACAGCAGGAGCGCUCUCGACGCAGCCCCUGUCAGAUUCUGGUGAGUCUGCGAAUUCUGCUGUAUAUCUC | 0.12
21 | UAACAGGGGGCCACAGCAGGAGCGCUCACGUCGCCGCCCCUGUCAGAUUCUGGUGAAUCUGCGAAUUCUGCUGUAUAUCUC | 0.37
22 | UAACAGGGGGCCACAGCAGGAGCGCUCACGUCGCUGCCCCUGUCAGAUUCUGGUGAAUCUGCGAAUUCUGUUGUAUAUCUC | 0.21
23 | UAACAGGGGGCCACAGCAGGAGCGCUCACGUCGCAGCCCCUGUCAGAUUCUGGUGAGUCUGCGAAUUCUGCUGUAUAUCUC | 0.1

Row | Variant | self-cleavage
24 | UAACAGGGGGCCACAGCAGGAGCGCUCACGUCGCAGCCCCUGUCAGAUUCUGGUGAAUCUGCGGAUUCUGCCGCAUAUCUC | 0.43
25 | UAACAGGGGGCCACAGCAGGAGCGCUCACGUCGCAGCCCCUGUCAGAUUCUGGUGAAUCUGCGUAUUCUGCUGCAUAUCUC | 0.13
26 | UAACAGGGGGCCACAGCAGGAGCGCUCACGUCGCAGCCCCUGUCAGAUUCUGGUGAAUUUGCGGAUUCUGCUGUAUAUCUC | 0.32
27 | UAACAGGGGGCCACAGCAGGAGCGCUCACAUCGCAGCCCCUGUCAGACUCUGGUGAAUCUGCGAAUUCUGCUGUAUAUCUC | 0.19
28 | UAACAGGGGGCCACAGCAGGAGCGCUCACGUCACAGCCCCUGUCAGAUUCUGGUGAGCCUGCGAAUUCUGCUGUAUAUCUC | 0.17
29 | UAACAGGGGGCCACAGCAGGAGCGCUCACGUCACAGCCCCUGUCAGAUUCAGGUGAAUCUGCGAAUUCUGCUGUAUAUCUC | 0.08
30 | UAACAGGGGGCCACAGCAGGAGCGCUCACGUCCCUGCCCCAGUCAGGUUCUGGUGAAUCUGCGAAUUCUGCUGUAUAUCUC | 0.13
31 | UAACAGGGGGCCACAGCAGGAGCGCUCACGUCGCAGCCCCUGUCAGAUUCUCGUGAAUCUGCGAAUUCUGCUGUAUAUCUC | 0.21
32 | UAACAGGGGGCCACAGCAGGAGCGCUCACGUCGCAGCCCCUGUCAGAUUCUGGUGAAUCUGCAAAUUCUGCUGUAUAUCUC | 0.26
33 | UAACAGGGGGCCACAGCAGGAGCGCCCACGUCGCAGCCCCUGUCAGAUUCUGGUGAAUCUGCGAAUUCUGCUGUAUAUCUC | 0.42
34 | UAACAGGGGGCCACAGCAGGAGCGCCCACGCCGCAGCCCCUGUCAGAUUCUGGUGAAUCUGCGAAUUCUGCUGUAUAUCUC | 0.41
35 | UAACAGGGGGCCACAGCAGGAGCGCCCACGUCGCAGCCCCUGACAGAUUCCGGUGAAUCUGCGAAUUCUGCUGUAUAUCUC | 0.09
36 | UAACAGGGGGCCACAGCAGGAGCGCUCACGACGCAGCCCCUGUCAGAUUCUGGUGAAUCUGCGAAUUCUGCUGAAUAUCUC | 0.39
37 | UAACAGGGGGCCACAGCAGGAGCGCUCACGCCGCAGCCCCUGUCAGAUUCUGGUGAAUCCGCGAAUUCUGCUGUAUAUCUC | 0.21
38 | UAACAGGGGGCCACAGCAGGAGCGCUCACGUCGCAGCCCCAGUCAGAUCCUGGUGAAUCUGCGAAUUCUGCUGUAUAUCUC | 0.25
39 | UAACAGGGGGCCACAGCAGGAGCGCUCACGUCGCAGCCCCUGCCAGAUUCUGGUGGAUCUGCGAAUUCUGCUGUAUAUCUC | 0.23
40 | UAACAGGGGGCCACAGCAGGAGCGCUCACGUCGCAGCCCCUGUCAGAAUCUGGUGAAUCUGCGAAUUCUGCUGUAUAUCAC | 0.05
41 | UAACAGGGGGCCACAGCAGGAGCGCUCACGUCGCAGCCCCUGUCAGAUUCAGGUGAAUAUGCGAAUUCUGCUGUAUAUCUC | 0.14
42 | UAACAGGGGGCCACAGCAGGAGCGCUCACGUCGCAGCCCCUGUCAGAUUCUGGAGAAUCUGGGAAUUCUGCUGUAUAUCUC | 0.06
43 | UAACAGGGGGCCACAGCAGGAGCGGUCACGACGCAGCCCCUGUCAGAUUCUGGUGAAUCUGCGAAUUCUGCUGUAUAUCUC | 0.34
44 | UAACAGGGGGCCACAGCAGGAGCGGUCACGUCGCAGCCCCUGUCAGAUUCUGGUGAAUCUGCGAACUCUGCUGUAUAUCUC | 0.25
45 | UAACAGGGGGCCACAGCAGGAGCGGUCACGUCGCAGCCCCUGUCAGAUUCUGGUGAAUCUGCGAACUCUGCUGUAUAACUC | 0.11
46 | UAACAGGGGGCCACAGCAGGAGCGUACGCGUCGCGGCCCCUGUCAGAUUCUGGCGAAUCUGCGAAUUCUGCUGUACAUCUC | 0.64

Row | Variant | self-cleavage
47 | UAACAGGGGGCCACAGCAGGAGCGUACGCGUCGCAGCCCCUGUCAGAUACUGGUGAAUCCGCGAAUUCUGCUGUAUAUCUC | 0.07
48 | UAACAGGGGGCCACAGCAGGAGCGUACACGUCGCUGCCCCCGUCAGAUUCCGGUGAAUCUGCGAAUUCUGCUGUAUAUCUC | 0.3
49 | UAACAGGGGGCCACAGCAGGAGCGUACACGUCGCAGCCCCUGUCGGAUUCUGGUGAAUCUGCGAAUUCUGCUGUAUAUCUC | 0.45
50 | UAACAGGGGGCCACAGCAGGAGCGUACACGUCGCAGCCCCUGUCAGAUUCUGGUGACUCUGCGAAUUCUGCUGUAUAUCUC | 0.35
51 | UAACAGGGGGCCACAGCAGGAGCGUACACGUCGCAGCCCCUGUCAGAUUCUGGUGAAUCUGCGAAUUCUGCUGUAUUUCUC | 0.77
52 | UAACAGGGGGCCACAGCAGGAGCGUACACGUCGCAGCCCAUGUCAGAUCCUGGUGAAUCUGCGAAUUCUACUGUAUAUCUC | 0.07
53 | UAACAGGGGGCCACAGCAGGAGCGUACACGUCGCAGCCCCAGUCAGAUUCUGGUGAAUCUGCGAAUUCUGCUGUAUAUCUC | 0.36
54 | UAACAGGGGGCCACAGCAGGAGCGUACACGUCGCAGCCCCCGUCAGAUUCUGGUGAAUCUGCGAAUUCUGCUGUAUAUCAC | 0.6
55 | UAACAGGGGGCCACAGCAGGAGCGUACACGUCGCAGCCCCUGUCAGAUUCUGGUGAAUCCGCGAAUUCUGCUGUAUAUCUC | 0.2
56 | UAACAGGGGGCCACAGCAGGAGCGUCCUCGUCGCAGCCCCUGUCAGAUUCAGGUGAAUCUGCGAAUUCCGCUGUAUGUCUC | 0.2
57 | UAACAGGGGGCCACAGCAGGAGCGUCCACGUCGCCGCCCCUGUCAGAUUCUGGUGAAUCUGCGGAUUCUGCUGUAUAUCUC | 0.21
58 | UAACAGGGGGCCACAGCAGGAGCGUCCACGUCGCUGCCCCUGUCAGAUUCAGGUGAAUCUGCAAGUCCUGCUGUAUAUCUC | 0.17
59 | UAACAGGGGGCCACAGCAGGAGCGUCCACGUCGCAGCCCCUGUCAGGGUCUGGUGCAUCUGCGAAUGCUGCUGUAUAUCUC | 0.09
60 | UAACAGGGGGCCACAGCAGGAGCGUCCAUGUCGCCGCCCCUGUCAGAUUCUGGCGAAUCUGCGAAUUCUGCUGUAUACCUC | 0.03
61 | UAACAGGGGGCCACAGCAGGAGCGUCCACGUCGCAGCCGCCGUCAGAUUCAGGUGAAUCUGCGAAUUCUGCUGUAUACCUC | 0.27
62 | UAACAGGGGGCCACAGCAGGAGCGUCCACGUCGCAGCCGCUGUCAGAUUCAGGUGAAUCUGCGAAUUCUGCUGUAUACCUC | 0.18
63 | UAACAGGGGGCCACAGCAGGAGCGUCCACGUCGCAGCCUCAGUCAGAUUCUGGUGAAUCUGCGCACUCUGCUGUAUACCUC | 0.03
64 | UAACAGGGGGCCACAGCAGGAGCGUCCACGUCGCAGCCCCUGUCAAAUUCUGGUGGAUCUGCGAAUUCUACUGUACAUCUC | 0.06
65 | UAACAGGGGGCCACAGCAGGAGCGUCCACGUCGCAGCCCCUGUCAGAUUCUGGUUAAUCCGCGAAUUCUGCCGUAUGUCUC | 0.14
66 | UAACAGGGGGCCACAGCAGGAGCGUCCACGACGCAGCCCCUGUCAGAUUCUGGUGAAUCUGCGAAUUCUGCCGUAUAUCUC | 0.11
67 | UAACAGGGGGCCACAGCAGGAGCGUCCACGUCGCAGCCCCAGUCAGAUUCAGGUGAAUCUGCGAACUCUGCUGUAUACCUC | 0.08
68 | UAACAGGGGGCCACAGCAGGAGCGUCCACGUCGCAGCCCCCGUCAGAUUCUGGUGAAUCUGCGAAUUCCGCAGUAAAUCUC | 0.1
